Experimental findings from the supplement of paper PMC12230231 are described below.

± gives the standard deviation of the averaged measurements. Restriction of a single-cycle SIVsab GFP reporter by TRIM5α v1-loop variants in CRFK cells. Human variants: read share among cells still uninfected after two challenges over input, higher = gained restriction. Rhesus variants: share among infected cells over input, higher = lost restriction. Reporter dose not given per row. No active / inactive call per row; the paper calls a change when both replicates lie above its controls (mean + 2 SD of stop or wild-type variants, or the top frameshift score). Residues outside the varied loop are taken from Swiss-Prot. The paper reads the human single-substitution scores as noise; they and the rhesus combinations repeat poorly (rank correlation 0.3 to 0.4), indel scores repeat only for the top variants, rhesus substitutions well (0.9).

The test system of the data set is SIVsab (simian immunodeficiency virus of sabaeus monkeys), single-cycle GFP reporter, in CRFK cells. Kind of data set: enrichment among uninfected cells over input (fold); higher = stronger restriction. As to conditions: library: human / rhesus combinations. As for the experimental part:
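Pools of CRFK cells expressing variants of the TRIM5α v1 loop were challenged with the single-cycle reporter, sorted by GFP and sequenced; mean of two replicates.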
Consider “MASGILVNVKEEVTCPICLELLTQPLSLDCGHSFCQACLTANHKKSMLDKGESSCPVCRISYQPENIRPNRHVANIVEKLREVKLSPEGQKVDHCARHGEKLLLFCQEDGKVICWLCERSQEHRGHHTFLTEEVAREYQVKLQAALEMLRQKQQEAEELEADIREEKASWKTQIQYDKTNVLADFEQLRDILDWEESNELQNLEKEEEDILKSLTNSETEMVQQTQSLRELISDLEHRLQGSVMELLQGVDGVIKRTENVTLKKPETFPKNQRRVFRAPDLKGMLEVFRELTDVRRYWVDVTVAPNNISCAVISEDKRQVSSPKPQIIYQARGTLFQTFVNFNYCTGILGSQSITSGKHYWEVDVSKKTAWILGVCAGFQPDAMCNIEKNENYQPKYGYWVIGLEEGVKCSAFQDSSFHTPSVPFIVPLSVIICPDRVGVFLDYEACTVSFFNITNHGFLIYKFSHCSFSQPVFPYLNPRKCGVPMTLCSPSS [human TRIM5α, 330-340 = QARGTLFQTFV]”, for which the enrichment amounted to 1.46 ± 1.7.

Regarding “MASGILVNVKEEVTCPICLELLTQPLSLDCGHSFCQACLTANHKKSMLDKGESSCPVCRISYQPENIRPNRHVANIVEKLREVKLSPEGQKVDHCARHGEKLLLFCQEDGKVICWLCERSQEHRGHHTFLTEEVAREYQVKLQAALEMLRQKQQEAEELEADIREEKASWKTQIQYDKTNVLADFEQLRDILDWEESNELQNLEKEEEDILKSLTNSETEMVQQTQSLRELISDLEHRLQGSVMELLQGVDGVIKRTENVTLKKPETFPKNQRRVFRAPDLKGMLEVFRELTDVRRYWVDVTVAPNNISCAVISEDKRQVSSPKPQIIYQARGTLFQTLVNFNYCTGILGSQSITSGKHYWEVDVSKKTAWILGVCAGFQPDAMCNIEKNENYQPKYGYWVIGLEEGVKCSAFQDSSFHTPSVPFIVPLSVIICPDRVGVFLDYEACTVSFFNITNHGFLIYKFSHCSFSQPVFPYLNPRKCGVPMTLCSPSS [human TRIM5α, 330-340 = QARGTLFQTLV]”, the enrichment is 0.00534 ± 0.0031. As to “MASGILVNVKEEVTCPICLELLTQPLSLDCGHSFCQACLTANHKKSMLDKGESSCPVCRISYQPENIRPNRHVANIVEKLREVKLSPEGQKVDHCARHGEKLLLFCQEDGKVICWLCERSQEHRGHHTFLTEEVAREYQVKLQAALEMLRQKQQEAEELEADIREEKASWKTQIQYDKTNVLADFEQLRDILDWEESNELQNLEKEEEDILKSLTNSETEMVQQTQSLRELISDLEHRLQGSVMELLQGVDGVIKRTENVTLKKPETFPKNQRRVFRAPDLKGMLEVFRELTDVRRYWVDVTVAPNNISCAVISEDKRQVSSPKPQIIYQARGTLFTFPSFTNFNYCTGILGSQSITSGKHYWEVDVSKKTAWILGVCAGFQPDAMCNIEKNENYQPKYGYWVIGLEEGVKCSAFQDSSFHTPSVPFIVPLSVIICPDRVGVFLDYEACTVSFFNITNHGFLIYKFSHCSFSQPVFPYLNPRKCGVPMTLCSPSS [human TRIM5α, 330-340 = QARGTLFTFPSFT]”, the enrichment is 3.82 ± 0.53. In the case of “MASGILVNVKEEVTCPICLELLTQPLSLDCGHSFCQACLTANHKKSMLDKGESSCPVCRISYQPENIRPNRHVANIVEKLREVKLSPEGQKVDHCARHGEKLLLFCQEDGKVICWLCERSQEHRGHHTFLTEEVAREYQVKLQAALEMLRQKQQEAEELEADIREEKASWKTQIQYDKTNVLADFEQLRDILDWEESNELQNLEKEEEDILKSLTNSETEMVQQTQSLRELISDLEHRLQGSVMELLQGVDGVIKRTENVTLKKPETFPKNQRRVFRAPDLKGMLEVFRELTDVRRYWVDVTVAPNNISCAVISEDKRQVSSPKPQIIYQARGTLFTFPSFVNFNYCTGILGSQSITSGKHYWEVDVSKKTAWILGVCAGFQPDAMCNIEKNENYQPKYGYWVIGLEEGVKCSAFQDSSFHTPSVPFIVPLSVIICPDRVGVFLDYEACTVSFFNITNHGFLIYKFSHCSFSQPVFPYLNPRKCGVPMTLCSPSS [human TRIM5α, 330-340 = QARGTLFTFPSFV]” it was 1.04 ± 0.17; in that of “MASGILVNVKEEVTCPICLELLTQPLSLDCGHSFCQACLTANHKKSMLDKGESSCPVCRISYQPENIRPNRHVANIVEKLREVKLSPEGQKVDHCARHGEKLLLFCQEDGKVICWLCERSQEHRGHHTFLTEEVAREYQVKLQAALEMLRQKQQEAEELEADIREEKASWKTQIQYDKTNVLADFEQLRDILDWEESNELQNLEKEEEDILKSLTNSETEMVQQTQSLRELISDLEHRLQGSVMELLQGVDGVIKRTENVTLKKPETFPKNQRRVFRAPDLKGMLEVFRELTDVRRYWVDVTVAPNNISCAVISEDKRQVSSPKPQIIYQARGTLFTFPSLTNFNYCTGILGSQSITSGKHYWEVDVSKKTAWILGVCAGFQPDAMCNIEKNENYQPKYGYWVIGLEEGVKCSAFQDSSFHTPSVPFIVPLSVIICPDRVGVFLDYEACTVSFFNITNHGFLIYKFSHCSFSQPVFPYLNPRKCGVPMTLCSPSS [human TRIM5α, 330-340 = QARGTLFTFPSLT]”, 0.781 ± 0.34. Turning to “MASGILVNVKEEVTCPICLELLTQPLSLDCGHSFCQACLTANHKKSMLDKGESSCPVCRISYQPENIRPNRHVANIVEKLREVKLSPEGQKVDHCARHGEKLLLFCQEDGKVICWLCERSQEHRGHHTFLTEEVAREYQVKLQAALEMLRQKQQEAEELEADIREEKASWKTQIQYDKTNVLADFEQLRDILDWEESNELQNLEKEEEDILKSLTNSETEMVQQTQSLRELISDLEHRLQGSVMELLQGVDGVIKRTENVTLKKPETFPKNQRRVFRAPDLKGMLEVFRELTDVRRYWVDVTVAPNNISCAVISEDKRQVSSPKPQIIYQARGTLFTFPSLVNFNYCTGILGSQSITSGKHYWEVDVSKKTAWILGVCAGFQPDAMCNIEKNENYQPKYGYWVIGLEEGVKCSAFQDSSFHTPSVPFIVPLSVIICPDRVGVFLDYEACTVSFFNITNHGFLIYKFSHCSFSQPVFPYLNPRKCGVPMTLCSPSS [human TRIM5α, 330-340 = QARGTLFTFPSLV]”, the enrichment is 0.342 ± 0.11. As for “MASGILVNVKEEVTCPICLELLTQPLSLDCGHSFCQACLTANHKKSMLDKGESSCPVCRISYQPENIRPNRHVANIVEKLREVKLSPEGQKVDHCARHGEKLLLFCQEDGKVICWLCERSQEHRGHHTFLTEEVAREYQVKLQAALEMLRQKQQEAEELEADIREEKASWKTQIQYDKTNVLADFEQLRDILDWEESNELQNLEKEEEDILKSLTNSETEMVQQTQSLRELISDLEHRLQGSVMELLQGVDGVIKRTENVTLKKPETFPKNQRRVFRAPDLKGMLEVFRELTDVRRYWVDVTVAPNNISCAVISEDKRQVSSPKPQIIYQARGTLFTFPTFTNFNYCTGILGSQSITSGKHYWEVDVSKKTAWILGVCAGFQPDAMCNIEKNENYQPKYGYWVIGLEEGVKCSAFQDSSFHTPSVPFIVPLSVIICPDRVGVFLDYEACTVSFFNITNHGFLIYKFSHCSFSQPVFPYLNPRKCGVPMTLCSPSS [human TRIM5α, 330-340 = QARGTLFTFPTFT]”, the enrichment was determined as 0.434 ± 0.097. On to “MASGILVNVKEEVTCPICLELLTQPLSLDCGHSFCQACLTANHKKSMLDKGESSCPVCRISYQPENIRPNRHVANIVEKLREVKLSPEGQKVDHCARHGEKLLLFCQEDGKVICWLCERSQEHRGHHTFLTEEVAREYQVKLQAALEMLRQKQQEAEELEADIREEKASWKTQIQYDKTNVLADFEQLRDILDWEESNELQNLEKEEEDILKSLTNSETEMVQQTQSLRELISDLEHRLQGSVMELLQGVDGVIKRTENVTLKKPETFPKNQRRVFRAPDLKGMLEVFRELTDVRRYWVDVTVAPNNISCAVISEDKRQVSSPKPQIIYQARGTLFTFPTFVNFNYCTGILGSQSITSGKHYWEVDVSKKTAWILGVCAGFQPDAMCNIEKNENYQPKYGYWVIGLEEGVKCSAFQDSSFHTPSVPFIVPLSVIICPDRVGVFLDYEACTVSFFNITNHGFLIYKFSHCSFSQPVFPYLNPRKCGVPMTLCSPSS [human TRIM5α, 330-340 = QARGTLFTFPTFV]”, for which the enrichment was 0.356 ± 0.0092. Turning to “MASGILVNVKEEVTCPICLELLTQPLSLDCGHSFCQACLTANHKKSMLDKGESSCPVCRISYQPENIRPNRHVANIVEKLREVKLSPEGQKVDHCARHGEKLLLFCQEDGKVICWLCERSQEHRGHHTFLTEEVAREYQVKLQAALEMLRQKQQEAEELEADIREEKASWKTQIQYDKTNVLADFEQLRDILDWEESNELQNLEKEEEDILKSLTNSETEMVQQTQSLRELISDLEHRLQGSVMELLQGVDGVIKRTENVTLKKPETFPKNQRRVFRAPDLKGMLEVFRELTDVRRYWVDVTVAPNNISCAVISEDKRQVSSPKPQIIYQARGTLFTFPTLTNFNYCTGILGSQSITSGKHYWEVDVSKKTAWILGVCAGFQPDAMCNIEKNENYQPKYGYWVIGLEEGVKCSAFQDSSFHTPSVPFIVPLSVIICPDRVGVFLDYEACTVSFFNITNHGFLIYKFSHCSFSQPVFPYLNPRKCGVPMTLCSPSS [human TRIM5α, 330-340 = QARGTLFTFPTLT]”, the enrichment is 0.783 ± 0.091.

Consider “MASGILVNVKEEVTCPICLELLTQPLSLDCGHSFCQACLTANHKKSMLDKGESSCPVCRISYQPENIRPNRHVANIVEKLREVKLSPEGQKVDHCARHGEKLLLFCQEDGKVICWLCERSQEHRGHHTFLTEEVAREYQVKLQAALEMLRQKQQEAEELEADIREEKASWKTQIQYDKTNVLADFEQLRDILDWEESNELQNLEKEEEDILKSLTNSETEMVQQTQSLRELISDLEHRLQGSVMELLQGVDGVIKRTENVTLKKPETFPKNQRRVFRAPDLKGMLEVFRELTDVRRYWVDVTVAPNNISCAVISEDKRQVSSPKPQIIYQARGTLFTFPTLVNFNYCTGILGSQSITSGKHYWEVDVSKKTAWILGVCAGFQPDAMCNIEKNENYQPKYGYWVIGLEEGVKCSAFQDSSFHTPSVPFIVPLSVIICPDRVGVFLDYEACTVSFFNITNHGFLIYKFSHCSFSQPVFPYLNPRKCGVPMTLCSPSS [human TRIM5α, 330-340 = QARGTLFTFPTLV]”, for which the enrichment is 0.0733 ± 0.047. In the case of “MASGILVNVKEEVTCPICLELLTQPLSLDCGHSFCQACLTANHKKSMLDKGESSCPVCRISYQPENIRPNRHVANIVEKLREVKLSPEGQKVDHCARHGEKLLLFCQEDGKVICWLCERSQEHRGHHTFLTEEVAREYQVKLQAALEMLRQKQQEAEELEADIREEKASWKTQIQYDKTNVLADFEQLRDILDWEESNELQNLEKEEEDILKSLTNSETEMVQQTQSLRELISDLEHRLQGSVMELLQGVDGVIKRTENVTLKKPETFPKNQRRVFRAPDLKGMLEVFRELTDVRRYWVDVTVAPNNISCAVISEDKRQVSSPKPQIIYQARGTLFTFQSFTNFNYCTGILGSQSITSGKHYWEVDVSKKTAWILGVCAGFQPDAMCNIEKNENYQPKYGYWVIGLEEGVKCSAFQDSSFHTPSVPFIVPLSVIICPDRVGVFLDYEACTVSFFNITNHGFLIYKFSHCSFSQPVFPYLNPRKCGVPMTLCSPSS [human TRIM5α, 330-340 = QARGTLFTFQSFT]”, the enrichment stood at 0.0926 ± 0.079. In the case of “MASGILVNVKEEVTCPICLELLTQPLSLDCGHSFCQACLTANHKKSMLDKGESSCPVCRISYQPENIRPNRHVANIVEKLREVKLSPEGQKVDHCARHGEKLLLFCQEDGKVICWLCERSQEHRGHHTFLTEEVAREYQVKLQAALEMLRQKQQEAEELEADIREEKASWKTQIQYDKTNVLADFEQLRDILDWEESNELQNLEKEEEDILKSLTNSETEMVQQTQSLRELISDLEHRLQGSVMELLQGVDGVIKRTENVTLKKPETFPKNQRRVFRAPDLKGMLEVFRELTDVRRYWVDVTVAPNNISCAVISEDKRQVSSPKPQIIYQARGTLFTFQSFVNFNYCTGILGSQSITSGKHYWEVDVSKKTAWILGVCAGFQPDAMCNIEKNENYQPKYGYWVIGLEEGVKCSAFQDSSFHTPSVPFIVPLSVIICPDRVGVFLDYEACTVSFFNITNHGFLIYKFSHCSFSQPVFPYLNPRKCGVPMTLCSPSS [human TRIM5α, 330-340 = QARGTLFTFQSFV]” it was 0.0693 ± 0.028.
